Laboratory results taken from publication PMC3731213.
Results are given in words; binding and its absence hold for the method and conditions named. Binding seen in cells or lysates may run through a third protein. Some results given as binding are weak or reduced against the parent protein; the word gives no strength.

Sequences of proteins named here, by UniProt entry; tags and fusion partners are left off.
UniProt P42003: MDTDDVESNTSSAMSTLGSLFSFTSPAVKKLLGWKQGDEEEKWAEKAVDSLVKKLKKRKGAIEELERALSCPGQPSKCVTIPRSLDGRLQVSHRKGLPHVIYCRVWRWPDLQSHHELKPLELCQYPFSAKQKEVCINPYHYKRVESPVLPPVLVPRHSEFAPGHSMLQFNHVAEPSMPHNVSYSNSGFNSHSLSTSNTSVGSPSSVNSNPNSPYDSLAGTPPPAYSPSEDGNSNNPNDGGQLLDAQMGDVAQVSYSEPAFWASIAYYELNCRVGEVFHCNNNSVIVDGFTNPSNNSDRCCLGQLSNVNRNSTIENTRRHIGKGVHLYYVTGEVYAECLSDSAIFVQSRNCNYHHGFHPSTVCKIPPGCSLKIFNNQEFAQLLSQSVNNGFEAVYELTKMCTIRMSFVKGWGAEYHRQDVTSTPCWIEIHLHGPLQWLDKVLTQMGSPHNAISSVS
UniProt O62609: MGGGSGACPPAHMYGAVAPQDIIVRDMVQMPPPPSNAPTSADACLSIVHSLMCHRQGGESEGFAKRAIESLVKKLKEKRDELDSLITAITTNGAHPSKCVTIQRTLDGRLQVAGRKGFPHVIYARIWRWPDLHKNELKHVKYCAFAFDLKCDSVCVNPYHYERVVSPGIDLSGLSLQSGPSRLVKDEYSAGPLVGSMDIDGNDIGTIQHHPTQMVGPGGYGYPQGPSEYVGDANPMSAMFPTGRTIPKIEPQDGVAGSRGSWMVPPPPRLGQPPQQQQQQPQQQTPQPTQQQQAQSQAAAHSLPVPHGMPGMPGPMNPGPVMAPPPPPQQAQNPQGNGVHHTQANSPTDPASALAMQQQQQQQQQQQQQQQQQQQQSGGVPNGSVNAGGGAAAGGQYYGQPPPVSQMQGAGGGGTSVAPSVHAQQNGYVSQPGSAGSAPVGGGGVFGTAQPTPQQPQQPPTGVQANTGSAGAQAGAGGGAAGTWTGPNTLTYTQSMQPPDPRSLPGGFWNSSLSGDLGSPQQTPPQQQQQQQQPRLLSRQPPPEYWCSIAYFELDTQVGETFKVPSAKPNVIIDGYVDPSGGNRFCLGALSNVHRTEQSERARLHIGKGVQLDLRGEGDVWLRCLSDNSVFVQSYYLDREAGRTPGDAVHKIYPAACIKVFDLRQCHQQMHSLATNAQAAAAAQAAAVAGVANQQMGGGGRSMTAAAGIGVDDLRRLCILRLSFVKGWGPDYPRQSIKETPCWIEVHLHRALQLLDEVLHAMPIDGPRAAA
UniProt Q24533: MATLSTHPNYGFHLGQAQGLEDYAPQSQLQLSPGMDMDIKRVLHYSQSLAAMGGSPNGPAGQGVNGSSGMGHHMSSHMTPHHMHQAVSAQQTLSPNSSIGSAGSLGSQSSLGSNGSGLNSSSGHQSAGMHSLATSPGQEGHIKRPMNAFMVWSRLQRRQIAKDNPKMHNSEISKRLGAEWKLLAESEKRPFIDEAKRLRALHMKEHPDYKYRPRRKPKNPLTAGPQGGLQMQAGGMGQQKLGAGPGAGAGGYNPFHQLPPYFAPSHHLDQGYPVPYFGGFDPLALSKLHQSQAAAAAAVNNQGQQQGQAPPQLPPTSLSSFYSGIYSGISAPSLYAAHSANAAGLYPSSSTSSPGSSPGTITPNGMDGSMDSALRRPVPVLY
UniProt O61735: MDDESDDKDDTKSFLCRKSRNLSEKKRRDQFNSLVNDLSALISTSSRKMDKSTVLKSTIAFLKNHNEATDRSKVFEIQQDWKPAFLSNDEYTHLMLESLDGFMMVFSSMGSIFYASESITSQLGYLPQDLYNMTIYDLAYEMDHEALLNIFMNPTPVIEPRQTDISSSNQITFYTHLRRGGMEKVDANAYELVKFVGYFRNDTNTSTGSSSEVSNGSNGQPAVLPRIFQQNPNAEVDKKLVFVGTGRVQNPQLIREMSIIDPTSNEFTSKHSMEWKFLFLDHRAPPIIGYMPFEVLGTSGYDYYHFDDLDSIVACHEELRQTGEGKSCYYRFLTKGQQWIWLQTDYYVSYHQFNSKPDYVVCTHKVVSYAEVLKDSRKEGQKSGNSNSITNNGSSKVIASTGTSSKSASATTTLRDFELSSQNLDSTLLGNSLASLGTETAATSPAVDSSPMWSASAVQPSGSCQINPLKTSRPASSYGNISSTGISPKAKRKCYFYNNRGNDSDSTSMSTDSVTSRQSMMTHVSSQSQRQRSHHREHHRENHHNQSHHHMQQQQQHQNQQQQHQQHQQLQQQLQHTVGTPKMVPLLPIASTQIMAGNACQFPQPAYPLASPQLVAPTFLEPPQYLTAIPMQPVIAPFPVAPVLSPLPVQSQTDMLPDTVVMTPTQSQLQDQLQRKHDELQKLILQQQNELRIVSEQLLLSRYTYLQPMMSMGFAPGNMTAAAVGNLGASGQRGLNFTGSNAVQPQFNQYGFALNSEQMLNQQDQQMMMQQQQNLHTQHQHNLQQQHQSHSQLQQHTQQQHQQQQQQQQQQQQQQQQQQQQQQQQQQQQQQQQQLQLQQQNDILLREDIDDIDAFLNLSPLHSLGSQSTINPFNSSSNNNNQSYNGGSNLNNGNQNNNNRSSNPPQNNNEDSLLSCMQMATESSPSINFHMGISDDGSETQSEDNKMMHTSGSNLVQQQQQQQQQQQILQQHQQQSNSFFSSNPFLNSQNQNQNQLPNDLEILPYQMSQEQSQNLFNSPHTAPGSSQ

What was measured:
Experiment in all cases: pull-down; modified LUMIER/LuMPIS: one partner fused to MBP, the other to Renilla luciferase, each made in a purified prokaryotic in vitro expression system and then combined; IP buffer (150 mM NaCl, 50 mM Tris pH 7.4), 4°C, 2 h; MBP-tagged protein isolated on amylose resin blocked with 5 percent BSA; luciferase retained relative to unfused luc gives the luminescence intensity ratio (LIR), cutoff 7 for positive; each pair in both configurations; duplicates
[1] = target: Mothers against dpp (MAD) (D. melanogaster) (UniProt P42003)
CYC (D. melanogaster) = target: T1, CYC (D. melanogaster) (UniProt O61734)
T1 sequence: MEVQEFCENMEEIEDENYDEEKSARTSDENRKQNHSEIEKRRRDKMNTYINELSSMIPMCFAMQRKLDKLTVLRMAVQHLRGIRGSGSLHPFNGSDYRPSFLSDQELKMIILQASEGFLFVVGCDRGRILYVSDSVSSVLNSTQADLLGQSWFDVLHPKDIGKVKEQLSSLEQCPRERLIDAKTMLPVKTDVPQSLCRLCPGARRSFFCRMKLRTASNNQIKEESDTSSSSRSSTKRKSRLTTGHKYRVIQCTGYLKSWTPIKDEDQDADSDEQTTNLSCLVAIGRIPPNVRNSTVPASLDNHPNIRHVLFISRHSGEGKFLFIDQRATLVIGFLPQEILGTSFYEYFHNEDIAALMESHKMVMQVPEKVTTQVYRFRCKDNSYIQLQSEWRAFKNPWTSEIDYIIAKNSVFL

[2] = target: Medea (MED) (D. melanogaster) (UniProt O62609)
[3] = target: T2, Adh transcription factor 1 (ADF1) (D. melanogaster) (UniProt P05552)
T2 sequence: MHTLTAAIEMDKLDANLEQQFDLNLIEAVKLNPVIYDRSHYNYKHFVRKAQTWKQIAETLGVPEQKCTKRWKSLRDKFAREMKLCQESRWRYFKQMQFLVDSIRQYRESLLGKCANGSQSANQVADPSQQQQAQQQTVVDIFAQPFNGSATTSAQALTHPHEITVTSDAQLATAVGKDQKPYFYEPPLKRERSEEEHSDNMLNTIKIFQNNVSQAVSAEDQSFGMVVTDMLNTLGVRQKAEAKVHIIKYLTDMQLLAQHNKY

[4] = target: giant (GT) (D. melanogaster) (UniProt P39572)
[5] = target: T3, hunchback (HB) (D. melanogaster) (UniProt P05084)
T3 sequence: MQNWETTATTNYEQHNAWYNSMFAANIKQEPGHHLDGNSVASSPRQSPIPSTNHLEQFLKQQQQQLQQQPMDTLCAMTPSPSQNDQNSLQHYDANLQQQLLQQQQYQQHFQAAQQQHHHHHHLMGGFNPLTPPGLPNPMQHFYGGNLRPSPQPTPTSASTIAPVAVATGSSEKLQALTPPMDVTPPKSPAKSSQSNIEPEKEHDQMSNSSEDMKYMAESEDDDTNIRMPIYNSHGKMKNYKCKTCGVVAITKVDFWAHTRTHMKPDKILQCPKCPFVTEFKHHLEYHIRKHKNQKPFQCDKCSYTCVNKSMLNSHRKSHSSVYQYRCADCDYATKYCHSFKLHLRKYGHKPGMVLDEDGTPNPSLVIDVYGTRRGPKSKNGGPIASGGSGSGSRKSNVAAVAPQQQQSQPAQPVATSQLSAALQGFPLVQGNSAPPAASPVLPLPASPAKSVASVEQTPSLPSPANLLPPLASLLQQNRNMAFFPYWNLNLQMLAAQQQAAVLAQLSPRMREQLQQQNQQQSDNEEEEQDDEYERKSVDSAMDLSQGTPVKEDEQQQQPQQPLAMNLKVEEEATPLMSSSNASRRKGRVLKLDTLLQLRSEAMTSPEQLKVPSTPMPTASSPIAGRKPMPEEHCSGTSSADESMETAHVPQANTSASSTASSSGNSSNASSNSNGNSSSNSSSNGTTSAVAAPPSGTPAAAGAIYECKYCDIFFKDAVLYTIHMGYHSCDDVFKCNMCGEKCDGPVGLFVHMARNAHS

D (SOX domain protein) (from UniProt Q24533 1-382)
binding [1]: binds

CLK (from UniProt O61735 1-1027)
binding (CYC (D. melanogaster)): binds

Mothers against dpp (MAD) (from UniProt P42003 1-455)
binding [2]: binds

B1: hunchback (HB) (protein, UniProt P05084 1-758)
chain: MQNWETTATTNYEQHNAWYNSMFAANIKQEPGHHLDGNSVASSPRQSPIPSTNHLEQFLKQQQQQLQQQPMDTLCAMTPSPSQNDQNSLQHYDANLQQQLLQQQQYQQHFQAAQQQHHHHHHLMGGFNPLTPPGLPNPMQHFYGGNLRPSPQPTPTSASTIAPVAVATGSSEKLQALTPPMDVTPPKSPAKSSQSNIEPEKEHDQMSNSSEDMKYMAESEDDDTNIRMPIYNSHGKMKNYKCKTCGVVAITKVDFWAHTRTHMKPDKILQCPKCPFVTEFKHHLEYHIRKHKNQKPFQCDKCSYTCVNKSMLNSHRKSHSSVYQYRCADCDYATKYCHSFKLHLRKYGHKPGMVLDEDGTPNPSLVIDVYGTRRGPKSKNGGPIASGGSGSGSRKSNVAAVAPQQQQSQPAQPVATSQLSAALQGFPLVQGNSAPPAASPVLPLPASPAKSVASVEQTPSLPSPANLLPPLASLLQQNRNMAFFPYWNLNLQMLAAQQQAAVLAQLSPRMREQLQQQNQQQSDNEEEEQDDEYERKSVDSAMDLSQGTPVKEDEQQQQPQQPLAMNLKVEEEATPLMSSSNASRRKGRVLKLDTLLQLRSEAMTSPEQLKVPSTPMPTASSPIAGRKPMPEEHCSGTSSADESMETAHVPQANTSASSTASSSGNSSNASSNSNGNSSSNSSSNGTTSAVAAPPSGTPAAAGAIYECKYCDIFFKDAVLYTIHMGYHSCDDVFKCNMCGEKCDGPVGLFVHMARNAHS
binding [3]: binds

B2: ribbon (RIB) (protein, UniProt Q7KF43 1-661)
chain: MGGPTAPVASSGEVGQTYCLRWNNHQTNLVQILHALHEVGSYVDCSLVVDDEQFQAHRVVLAANSPYFQHILKDVPQDHCSIILPGVKGFEIAALLQYMYTGETTVTKSQEPEILRTAKELQVKGLYDNLMKFNHASVTPTSSSGAGGAKPQNGSASNHSSSVISTSTHISPSAAISSSCSPPPPPQFGYQPGYSHYPQQQPMSASQIPAGEAPLTPTQATPHSAASGAGEAGGQWPLTPSAAAAMLNSVYESAADMNPLKRKKLSAISSMLLSGNRDTPILRNVLAQANPADSSQPGPMNANGEKTPTHPHQNTQLPAGLGVSGGERNHSFNGSDYGGDKEPLSPYTDRSFEEETGQSGGKKPEWKRYKQYTRADMMCAIQAVREGMSALQASRKYGLPSRTLYDKVRKLNITTGRGTHRTPKRSPPGAESSQGFSYSAAAAAAAHNYGHGHGHHSEVKRDQKVDHVPAHHGMPPTIPPSAAALLDHAFLQQALENRGGDMAGREALHAMALAAAAHAAANRLSSSPAEMDQRSNGHGMRSPSPQGRHYPHEQEAMDLEMEKHEQNIIKRERDQDEREDADDEEDHEQEHVEDLSLARKERPPSPYSPQPTEAGAGVIMHASSASANGKDHVDYPSSPQFVPIGLKRELMEGEDAQARAD
binding [1]: binds | binding [2]: no binding

B3: giant (GT) (protein, UniProt P39572 1-448)
chain: MLMHEKLMAGQFFDLKTDRKPLMHHHQYQHHQQQPLHHLPHSQLPVQGSLGLPKMDLYTAYAYQQQLLGAALSQQQQQQQQQQQHQQLQQQHTSSAEVLDLSRRCDSVETPRKTPSPYQTSYSYGSGSPSASPTSNLLYAAQMQQQQHQQQQQQQQQQQQLASLYPAFYYSNIKQEQATPTAAPPKVTPTANLLQTFAAASAAAAAAAAASSTNSPRPASNASTMQIDVLENPLSPAVEATTPTTSSSGEAGKNTRPFKAFPRDPLVIAANFAATDVLLDNPRVERYTEYRKRVLEQIRSSNGGSRTVTNPKMRRTNSRSGSVNEGSSSNNNSESEDRAAAEESSDCDSQAGNFESKSATSSSSNLANATAANSGISSGSQVKDAAYYERRRKNNAAAKKSRDRRRIKEDEIAIRAAYLERQNIELLCQIDALKVQLAAFTSAKVTTA
binding [4]: binds

B4: Adh transcription factor 1 (ADF1) (protein, UniProt P05552 1-262)
chain: MHTLTAAIEMDKLDANLEQQFDLNLIEAVKLNPVIYDRSHYNYKHFVRKAQTWKQIAETLGVPEQKCTKRWKSLRDKFAREMKLCQESRWRYFKQMQFLVDSIRQYRESLLGKCANGSQSANQVADPSQQQQAQQQTVVDIFAQPFNGSATTSAQALTHPHEITVTSDAQLATAVGKDQKPYFYEPPLKRERSEEEHSDNMLNTIKIFQNNVSQAVSAEDQSFGMVVTDMLNTLGVRQKAEAKVHIIKYLTDMQLLAQHNKY
binding [5]: binds
